Measurements as given in PubChem BioAssay AID2675 (National Center for Advancing Translational Sciences (NCATS), 2010).
In all, about 280,000 compounds went through this assay and about 100 (0.036%) were called active. This list was built around the results that the source calls inconclusive (neither active nor inactive); the mix of calls is not that of the screen. Calls come from the whole dose curve; as a rule, active = well fitted inhibition curve with a large enough effect in the signal ratio, with a control signal flat (not every such curve was filed as active); inconclusive = small, poorly fitted or top-dose-only effect, or effect the other way, or a change in a side signal; inactive = no such curve, though single readings can be large or run the other way; the % refers to the signal ratio. Potencies beside an inconclusive call are fits to weak or partial responses and may not hold up. A note “side channel” means that the fit belongs to a control or component signal, not to the main read-out.

Molecular target: Muscleblind-like protein 1 (Homo sapiens) (UniProt Q9NR56)
UniProt Q9NR56, sequence (Q9NR56 whole entry, looked up): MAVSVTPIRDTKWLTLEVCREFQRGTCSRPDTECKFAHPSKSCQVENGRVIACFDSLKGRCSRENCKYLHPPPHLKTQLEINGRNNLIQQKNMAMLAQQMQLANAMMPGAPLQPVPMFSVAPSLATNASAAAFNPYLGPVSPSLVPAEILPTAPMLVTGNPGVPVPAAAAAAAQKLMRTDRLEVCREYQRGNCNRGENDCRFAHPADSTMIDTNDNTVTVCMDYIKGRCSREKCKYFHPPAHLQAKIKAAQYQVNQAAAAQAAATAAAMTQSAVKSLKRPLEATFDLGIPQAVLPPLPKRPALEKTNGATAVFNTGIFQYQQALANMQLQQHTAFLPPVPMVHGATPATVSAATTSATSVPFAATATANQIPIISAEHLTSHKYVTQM
Assay: qHTS Assay for Inhibitors of MBNL1-poly(CUG) RNA binding
Conditions: TR-FRET MBNL1-His/biotin-(CUG)12 binding, 665/545 ratio; activity change, negative = inhibition: at 57.5 µM (top of the series)
Summary of the method: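 Compounds (final 92 nM to 58 uM) are added to His-tagged MBNL1 and biotin-(CUG)12, then terbium anti-His antibody and streptavidin-XL665 (5 nM final). After 60 min at room temperature, the 665/545 nm ratio is read.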
% is set by controls: 0 for no effect and ±100 for the full control effect; potency is the fitted concentration of half-maximal effect; tags give direction and shape of the fitted curve or compound fluorescence and quenching.

Q: NC(=O)c1ccc(N=Cc2ccc([N+](=O)[O-])s2)cc1 was tested. Which “activity change, negative = inhibition” value did it give?
A: inactive: 17.1%

Q: COc1ccc(OC)c(N(C(=O)c2snc(C(N)=O)c2N)C(C(=O)NCc2ccccc2)c2ccc(O)cc2)c1 (stereo not drawn) was tested. Which Potency did it give?
A: inconclusive: 17.8 µM [quencher, side channel, partial curve]

Q: For Cc1cc(C)nc(-n2ncc3c2CC(c2ccccc2C)CC3=O)n1 (stereo not drawn), which Potency is on record?
A: inconclusive: 2.82 µM [fluorescent, side channel, partial curve]

Q: With C=CCn1ccc(=NC=C(C#N)C#N)c2ccccc21 as the molecule, how does the Potency read?
A: inconclusive: 17.8 µM [quencher, side channel, partial curve]

Q: How did the Potency turn out when CC(=C/c1ccccc1)/C=N/NC(=O)c1cnccn1 was run?
A: inconclusive: 25.1 µM [quencher, side channel, partial curve]

Q: COc1cc2c(=O)n(CCC(=O)NCC3CCCO3)c(=O)n(CC(=O)c3ccc(Cl)cc3)c2cc1OC (stereo not drawn) was tested. Which Potency did it give?
A: inconclusive: 5.01 µM [fluorescent, side channel, single point]

Q: Nc1nc(-c2ccccc2)c(-c2ccc([N+](=O)[O-])cc2)s1 was tested. Which Potency did it give?
A: inconclusive: 15.8 µM [quencher, partial curve]

Q: With CCOc1ccc(NC(=O)CCN2C(=O)c3cccc([N+](=O)[O-])c3C2=O)cc1 as the molecule, how does the Potency read?
A: inconclusive: 10 µM [quencher, partial curve]

Q: How did the Potency turn out when CCOC(=O)c1ccc(-n2c(CN(CC)CC)nc3ccc([N+](=O)[O-])cc3c2=O)cc1 was run?
A: inconclusive: 14.1 µM [quencher, side channel, partial curve]

Q: How did the “activity change, negative = inhibition” value turn out when COC(=O)c1ccc(C23CC4(C2)[C@H](CN(Cc2cccnc2)[C@@H]4c2ccccc2)C3c2ccc(C(F)(F)F)cc2)cc1 (stereo partly drawn) was run?
A: inactive: 3.3%

Q: For Oc1ccc2ccccc2c1/C=N/Nc1nnc(-c2ncc[nH]2)c2ccccc12, which “activity change, negative = inhibition” value is on record?
A: inactive: 2.3%

Q: How did the “activity change, negative = inhibition” value turn out when COc1ccc(-c2nc3c4ccccc4ccn3c2CN2CCCCC2)cc1 was run?
A: inactive: -4.48%

Q: How did the Potency turn out when O=C(NCc1ccccc1)c1cc[n+](CC(=O)c2cccs2)cc1 was run?
A: inconclusive: 20 µM [quencher, side channel, partial curve]

Q: Which Potency does the source give for O=C(C1=C(O)C(=O)N(CCN2CCOCC2)C1c1ccc(Br)cc1)c1cc2ccccc2o1 (stereo not drawn) here?
A: inconclusive: 39.8 µM [quencher, side channel, single point]

Q: CCCCOC(=O)/C(=C/C=C/c1ccccc1)NC(=O)c1ccccc1 was tested. Which Potency did it give?
A: inconclusive: 25.1 µM [quencher, side channel, single point]

Q: Cc1cccc(NC(=O)c2cnc3sccn3c2=O)c1C was tested. Which Potency did it give?
A: inconclusive: 31.6 µM [quencher, side channel, single point]

Q: O=c1oc2ccccc2c(Nc2ccc(F)cc2)c1[N+](=O)[O-] was tested. Which Potency did it give?
A: inconclusive: 25.1 µM [quencher, side channel, single point]

Q: How did the Potency turn out when O=c1[nH]c(CN2CCN(c3ccc([N+](=O)[O-])cc3)CC2)nc2ccsc12 was run?
A: inconclusive: 12.6 µM [quencher, partial curve]

Q: Which Potency does the source give for O=C1c2ccccc2NC(c2cccc([N+](=O)[O-])c2)N1CCc1ccccc1 (stereo not drawn) here?
A: inconclusive: 31.6 µM [quencher, side channel, single point]

Q: For O=C(c1cc2nc(-c3ccco3)cc(C(F)(F)F)n2n1)N1CCN(c2ccccn2)CC1, which Potency is on record?
A: inconclusive: 28.2 µM [quencher, side channel, single point]

Q: With O=C(COC(=O)c1cccc([N+](=O)[O-])c1)NCc1ccc2c(c1)OCO2 as the molecule, how does the Potency read?
A: inconclusive: 31.6 µM [quencher, side channel, partial curve]

Q: For O=C(Nc1cccc(NC(=O)c2cccc([N+](=O)[O-])c2)n1)c1cccc([N+](=O)[O-])c1, which Potency is on record?
A: inconclusive: 39.8 µM [quencher, side channel, partial curve, poor fit]

Q: How did the Potency turn out when N#Cc1ccc(/C=N/NC(=O)c2cccc(S(=O)(=O)N3CCOCC3)c2)cc1 was run?
A: inconclusive: 22.4 µM [quencher, side channel, partial curve, poor fit]

Q: For N=C1C=CC=C2C1=NC1(CCCCC1)N2O, which Potency is on record?
A: inconclusive: 14.1 µM [quencher, partial curve]

Q: Which Potency does the source give for O=C(c1ccc([N+](=O)[O-])cc1)N1C=CC(C(F)(F)F)=NCC1 here?
A: inconclusive: 25.1 µM [quencher, side channel, partial curve]

Q: For NC(=O)c1cc[n+](Cc2ccccc2Cl)cc1, which Potency is on record?
A: inconclusive: 15.8 µM [quencher, side channel, partial curve]

Q: O=C(CN1CCCC1)N/N=C/c1c(O)ccc2ccccc12 was tested. Which Potency did it give?
A: inconclusive: 25.1 µM [quencher, side channel, partial curve]

Q: Which Potency does the source give for Cc1nn(CCOc2ccccc2)c(=O)n1-c1ccccc1F here?
A: inconclusive: 0.891 µM [quencher, side channel, single point]

Q: For O=[N+]([O-])c1ccccc1/C=N/N1CCN(c2ccncc2S(=O)(=O)N2CCCCC2)CC1, which Potency is on record?
A: inconclusive: 39.8 µM [quencher, single point]

Q: CCn1c(SCC(N)=O)nc2c1c(=O)n(C)c(=O)n2C was tested. Which “activity change, negative = inhibition” value did it give?
A: inactive: -8.45%

Q: With Fc1ccc(-c2ccc(/C=N/n3cnnc3)o2)cc1 as the molecule, how does the Potency read?
A: inconclusive: 12.6 µM [quencher, side channel, partial curve]

Q: C=CCn1c(C)cc(C)c(C#N)c1=O was tested. Which “activity change, negative = inhibition” value did it give?
A: inactive: 1.58%

Q: For COc1ccc(-c2nc3n(c(=O)c2C#N)CCS3)cc1OC, which Potency is on record?
A: inconclusive: 8.91 µM [quencher, side channel, partial curve]

Q: How did the activity change, negative = inhibition turn out when Cc1nc2sc(C(c3cccs3)N3CC(C)CC(C)C3)c(O)n2n1 (stereo not drawn) was run?
A: inconclusive: 15.4% [phenotype inactive]

Q: For N#CCCn1cc(/C=C2\NC(=S)N(c3ccccc3)C2=O)c(-c2ccc(F)cc2)n1, which Potency is on record?
A: inconclusive: 14.1 µM [quencher, side channel, partial curve]

Q: COc1ccc(-c2c(C#N)c(N)nc3c2CCc2ccccc2-3)cc1OC was tested. Which “activity change, negative = inhibition” value did it give?
A: inactive: 21.1%

Q: Which Potency does the source give for COCCNC(=O)/C(C#N)=C/c1ccc(N2CCOCC2)o1 here?
A: inconclusive: 3.98 µM [quencher, side channel, full curve]

Q: CCCC[n+]1ccn(-c2nc3ccccc3nc2[N-]S(=O)(=O)c2cccs2)c1 was tested. Which Potency did it give?
A: inconclusive: 22.4 µM [quencher, side channel, partial curve]

Q: How did the Potency turn out when Cc1ccc2c(c1)COc1c3ccc(C(=O)N4CCOCC4)cc3nn1-2 was run?
A: inconclusive: 22.4 µM [quencher, side channel, partial curve]

Q: How did the Potency turn out when O=c1oc2ccccc2cc1-c1cn2cccnc2n1 was run?
A: inconclusive: 3.98 µM [quencher, side channel, full curve]

Q: For N#Cc1c(NC(=O)Cn2c(=O)oc3ccccc32)oc(-c2ccccc2)c1-c1ccccc1, which “activity change, negative = inhibition” value is on record?
A: inactive: 7.6%

Q: For COc1ccc(NC(=O)c2cc3cccc(OC)c3oc2=Nc2ccc(C(=O)O)cc2)cc1OC, which “activity change, negative = inhibition” value is on record?
A: inactive: 9.89%

Q: O=C1CNC(=O)/C(=C/c2cccs2)N1 was tested. Which Potency did it give?
A: inconclusive: 39.8 µM [quencher, side channel, single point]

Q: How did the Potency turn out when COc1ccc(-c2ccc(=O)n(Cc3cc(=O)n4ccccc4n3)n2)cc1 was run?
A: inconclusive: 20 µM [quencher, side channel, partial curve]

Q: With CC(C)c1ccc(/C=C2\SC(=S)N(CC(=O)NCCCN3CCOCC3)C2=O)cc1 as the molecule, how does the Potency read?
A: inconclusive: 25.1 µM [quencher, side channel, partial curve]

Q: How did the Potency turn out when C(=N\Nc1nnnn1-c1ccccc1)/c1ccncc1 was run?
A: inconclusive: 20 µM [quencher, side channel, single point]

Q: CN1CCc2c(sc(NC(=O)c3ccc4ccccc4c3)c2C(N)=O)C1 was tested. Which Potency did it give?
A: inconclusive: 14.1 µM [quencher, side channel, partial curve]

Q: CCOC(=O)CN(C(=O)CSc1nnc2c(n1)[nH]c1ccc(OC)cc12)c1ccc(F)cc1 was tested. Which Potency did it give?
A: inconclusive: 5.01 µM [quencher, side channel, full curve, poor fit]

Q: CC(=O)c1cccc(NC(=O)CN(C)S(=O)(=O)c2cccc3nsnc23)c1 was tested. Which Potency did it give?
A: inconclusive: 7.08 µM [quencher, partial curve]

Q: Which Potency does the source give for Nn1cnnc1N/N=C/c1cc([N+](=O)[O-])c(Cl)cc1Cl here?
A: inconclusive: 31.6 µM [quencher, side channel, single point]

Q: For Cc1cccc(C2C3=C(CCCC3=O)N=C3c4ccccc4C(=O)C32)c1 (stereo not drawn), which Potency is on record?
A: inconclusive: 15.8 µM [quencher, side channel, partial curve]

Q: How did the Potency turn out when O=[N+]([O-])c1ccc(Nc2c3ccccc3nc3ccccc23)cc1 was run?
A: inconclusive: 25.1 µM [quencher, side channel, partial curve]

Q: How did the “activity change, negative = inhibition” value turn out when CCCCNC(=S)Nc1ccc2[nH]c(=O)[nH]c2c1 was run?
A: inactive: -5.06%

Q: Which Potency does the source give for Cc1ccc(Cn2c(SCC(=O)N3CC(=O)Nc4ccccc43)nc3ccccc3c2=O)cc1 here?
A: inconclusive: 126 µM [inhibitor, single point]

Q: With O=C(C1=C[C@H](c2ccc3c(c2)OCO3)C[C@H](OCCCCO)O1)N1CCOCC1 as the molecule, how does the Potency read?
A: inconclusive: 31.6 µM [quencher, side channel, partial curve]

Q: Which Potency does the source give for CC(=O)c1nc(N2C(=O)CC(Cc3ccccc3)C2=O)sc1C (stereo not drawn) here?
A: inconclusive: 8.91 µM [quencher, side channel, single point]

Q: For Oc1ccc(Cl)cc1C1=NNC(c2cc(Br)cc3c2OCOC3)C1 (stereo not drawn), which “activity change, negative = inhibition” value is on record?
A: inactive: 48.5%

Q: Cc1cccc(N2C(=O)c3cccc4c(N(C)CCO)ccc(c34)C2=O)c1 was tested. Which Potency did it give?
A: inconclusive: 12.6 µM [quencher, side channel, partial curve]
